Patent US20210238308A1 (Chugai, published 2021)

T1: PRYSPRY domain of human TRIM21 with N-terminal 6xHis tag (human)
T1 construct: Expressed in E. coli; also called hTRIM21; human TRIM21.PRYSPRY
T1 chain: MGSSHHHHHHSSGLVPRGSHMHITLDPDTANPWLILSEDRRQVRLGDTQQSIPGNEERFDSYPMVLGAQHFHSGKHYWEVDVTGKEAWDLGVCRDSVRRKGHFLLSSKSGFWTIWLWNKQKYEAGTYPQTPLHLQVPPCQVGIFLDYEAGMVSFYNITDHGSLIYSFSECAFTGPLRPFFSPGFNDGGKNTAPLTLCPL

T2: PRYSPRY domain of mouse TRIM21 with N-terminal 6xHis tag (mouse)
T2 construct: Expressed in E. coli; also called mTRIM21; mouse TRIM21.PRYSPRY
T2 chain: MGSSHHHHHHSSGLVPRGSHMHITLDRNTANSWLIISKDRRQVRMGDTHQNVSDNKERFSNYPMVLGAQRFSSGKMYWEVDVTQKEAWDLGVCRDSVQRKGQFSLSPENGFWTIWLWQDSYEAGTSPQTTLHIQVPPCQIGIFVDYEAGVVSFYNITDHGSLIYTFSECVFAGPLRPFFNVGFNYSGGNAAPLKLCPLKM

B1: MRAH-G1d/MRAL-KT0 Q311V (antibody, human IgG1, kappa)
heavy: QVQLQESGPGLVRPSQTLSLTCTVSGYSITSDHAWSWVRQPPGRGLEWIGYISYSGITTYNPSLKSRVTMLRDTSKNQFSLRLSSVTAADTAVYYCARSLARTTAMDYWGQGSLVTVSS[human IgG1 constant region with Q311V (EU numbers) omitted here]
light: DIQMTQSPSSLSASVGDRVTITCRASQDISSYLNWYQQKPGKAPKLLIYYTSRLHSGVPSRFSGSGSGTDFTFTISSLQPEDIATYYCQQGNTLPYTFGQGTKVEIKRTVAAPSVFIFPPSDEQLKSGTASVVCLLNNFYPREAKVQWKVDNALQSGNSQESVTEQDSKDSTYSLSSTLTLSKADYEKHKVYACEVTHQGLSSPVTKSFNRGEC
notes: copies: 2 + 2
B2: MRAH-G1d/MRAL-KT0 Y436E (antibody, human IgG1, kappa)
heavy: QVQLQESGPGLVRPSQTLSLTCTVSGYSITSDHAWSWVRQPPGRGLEWIGYISYSGITTYNPSLKSRVTMLRDTSKNQFSLRLSSVTAADTAVYYCARSLARTTAMDYWGQGSLVTVSS[human IgG1 constant region with Y436E (EU numbers) omitted here]
light: B1 light
notes: copies: 2 + 2
B3: MRAH-G1d/MRAL-KT0 Y436Q (antibody, human IgG1, kappa)
heavy: QVQLQESGPGLVRPSQTLSLTCTVSGYSITSDHAWSWVRQPPGRGLEWIGYISYSGITTYNPSLKSRVTMLRDTSKNQFSLRLSSVTAADTAVYYCARSLARTTAMDYWGQGSLVTVSS[human IgG1 constant region with Y436Q (EU numbers) omitted here]
light: B1 light
notes: copies: 2 + 2
B4: MRAH-G1d/MRAL-KT0 Q311W (antibody, human IgG1, kappa)
heavy: QVQLQESGPGLVRPSQTLSLTCTVSGYSITSDHAWSWVRQPPGRGLEWIGYISYSGITTYNPSLKSRVTMLRDTSKNQFSLRLSSVTAADTAVYYCARSLARTTAMDYWGQGSLVTVSS[human IgG1 constant region with Q311W (EU numbers) omitted here]
light: B1 light
notes: copies: 2 + 2
B5: MRAH-G1d/MRAL-KT0 Y436M (antibody, human IgG1, kappa)
heavy: QVQLQESGPGLVRPSQTLSLTCTVSGYSITSDHAWSWVRQPPGRGLEWIGYISYSGITTYNPSLKSRVTMLRDTSKNQFSLRLSSVTAADTAVYYCARSLARTTAMDYWGQGSLVTVSS[human IgG1 constant region with Y436M (EU numbers) omitted here]
light: B1 light
notes: copies: 2 + 2
B6: MRAH-G1d/MRAL-KT0 T437D (antibody, human IgG1, kappa)
heavy: QVQLQESGPGLVRPSQTLSLTCTVSGYSITSDHAWSWVRQPPGRGLEWIGYISYSGITTYNPSLKSRVTMLRDTSKNQFSLRLSSVTAADTAVYYCARSLARTTAMDYWGQGSLVTVSS[human IgG1 constant region with T437D (EU numbers) omitted here]
light: B1 light
notes: copies: 2 + 2
B7: MRAH-G1d/MRAL-KT0 Y436L (antibody, human IgG1, kappa)
heavy: QVQLQESGPGLVRPSQTLSLTCTVSGYSITSDHAWSWVRQPPGRGLEWIGYISYSGITTYNPSLKSRVTMLRDTSKNQFSLRLSSVTAADTAVYYCARSLARTTAMDYWGQGSLVTVSS[human IgG1 constant region with Y436L (EU numbers) omitted here]
light: B1 light
notes: copies: 2 + 2
B8: MRAH-G1d/MRAL-KT0 T437A (antibody, human IgG1, kappa)
heavy: QVQLQESGPGLVRPSQTLSLTCTVSGYSITSDHAWSWVRQPPGRGLEWIGYISYSGITTYNPSLKSRVTMLRDTSKNQFSLRLSSVTAADTAVYYCARSLARTTAMDYWGQGSLVTVSS[human IgG1 constant region with T437A (EU numbers) omitted here]
light: B1 light
notes: copies: 2 + 2
B9: MRAH-G1d/MRAL-KT0 Q311Y (antibody, human IgG1, kappa)
heavy: QVQLQESGPGLVRPSQTLSLTCTVSGYSITSDHAWSWVRQPPGRGLEWIGYISYSGITTYNPSLKSRVTMLRDTSKNQFSLRLSSVTAADTAVYYCARSLARTTAMDYWGQGSLVTVSS[human IgG1 constant region with Q311Y (EU numbers) omitted here]
light: B1 light
notes: copies: 2 + 2
B10: MRAH-G1d/MRAL-KT0 Y436G (antibody, human IgG1, kappa)
heavy: QVQLQESGPGLVRPSQTLSLTCTVSGYSITSDHAWSWVRQPPGRGLEWIGYISYSGITTYNPSLKSRVTMLRDTSKNQFSLRLSSVTAADTAVYYCARSLARTTAMDYWGQGSLVTVSS[human IgG1 constant region with Y436G (EU numbers) omitted here]
light: B1 light
notes: copies: 2 + 2
B11: MRAH-G1d/MRAL-KT0 Y436F (antibody, human IgG1, kappa)
heavy: QVQLQESGPGLVRPSQTLSLTCTVSGYSITSDHAWSWVRQPPGRGLEWIGYISYSGITTYNPSLKSRVTMLRDTSKNQFSLRLSSVTAADTAVYYCARSLARTTAMDYWGQGSLVTVSS[human IgG1 constant region with Y436F (EU numbers) omitted here]
light: B1 light
notes: copies: 2 + 2
B12: MRAH-G1d/MRAL-KT0 Y436K (antibody, human IgG1, kappa)
heavy: QVQLQESGPGLVRPSQTLSLTCTVSGYSITSDHAWSWVRQPPGRGLEWIGYISYSGITTYNPSLKSRVTMLRDTSKNQFSLRLSSVTAADTAVYYCARSLARTTAMDYWGQGSLVTVSS[human IgG1 constant region with Y436K (EU numbers) omitted here]
light: B1 light
notes: copies: 2 + 2
B13: MRAH-G1d/MRAL-KT0 Y436R (antibody, human IgG1, kappa)
heavy: QVQLQESGPGLVRPSQTLSLTCTVSGYSITSDHAWSWVRQPPGRGLEWIGYISYSGITTYNPSLKSRVTMLRDTSKNQFSLRLSSVTAADTAVYYCARSLARTTAMDYWGQGSLVTVSS[human IgG1 constant region with Y436R (EU numbers) omitted here]
light: B1 light
notes: copies: 2 + 2

Target: T1, PRYSPRY domain of human TRIM21 with …
Experiment: SPR, Protein L capture

Row | hTRIM21 binding level ratio (variant/control antibody) | Binder
1 | 0.989 | B1
2 | 0.01 | B2
3 | -0.035 | B3
4 | 1.16 | B4
5 | 0.247 | B5
6 | 1.34 | B6
7 | 0.343 | B7
8 | 1.01 | B8
9 | 1.22 | B9
10 | 0.101 | B10
11 | 1.08 | B11
12 | -0.071 | B12
13 | -0.028 | B13

Target: T2, PRYSPRY domain of mouse TRIM21 with …
Experiment: SPR, Protein L capture

Row | mTRIM21 binding level ratio (variant/control antibody) | Binder
14 | 2.62 | B1
15 | 0.191 | B2
16 | 0.15 | B3
17 | 2.79 | B4
18 | 0.892 | B5
19 | 2.19 | B6
20 | 0.744 | B7
21 | 2.41 | B8
22 | 2.82 | B9
23 | 1.69 | B10
24 | 2.47 | B11
25 | -0.226 | B12
26 | 0.295 | B13

Target: T3, human FcRn (human, UniProt P55899 in part; P61769 in part, limits assumed)
T3 construct: also called hFcRn
Experiment: SPR, Protein L capture

Row | hFcRn binding level ratio (variant/control antibody) | Binder
27 | 0.14 | B1
28 | 0.59 | B2
29 | 0.93 | B3
30 | 0.4 | B4
31 | 0.88 | B5
32 | 0.91 | B6
33 | 1.02 | B7
34 | 0.96 | B8
35 | 0.15 | B9
36 | 0.51 | B10
37 | 0.91 | B11
38 | 0.22 | B12
39 | 0.47 | B13
